Results on 22 molecules are retold here after publication PMC12136788.

B1: chr22:19452774:19452775:-_ENSG00000070010_ENST00000399523|hu_hu|hu_hu_hu_mus_False|8_68 (ssRNA)
RNA: GGGAGUUCUACAGUCCGACGAUCCUUCUCAUUGUAGUUGAUAGCAAUCACAUCUCCAGUCGUCAGACAGGCAAAGUUUCUCAAUGCAUUUUCUAAUACCGCUUUAGGGUUGGUAAUAUCCAGGAAGUCAGGGCUCUGAGGCUGCAACAGAGGAUUGAGCAUCA
B2: 117608601_117610917_3654_CDS_ENSMUSG00000025571_ENSMUST00000138299|mouse|control|control (ssRNA)
RNA: GGGAGUUCUACAGUCCGACGAUCCUGCAGAUUAGUGAUUGUGCGCGCAACUUGCUGCUCCUGUUGCCUCAUGGGUCCGGAAACAUUCCGCUGGGCCUGUAACAUCUGCUGCUGGAUUUGUAAACGUUGGUAUGCCAGCUGCAGCAACAGAGGAUUGAGCAUCA
B3: chr2:115689334:115689335:-_ENSMUSG00000027210_ENSMUST00000074285|mus_hu|motif|central (ssRNA)
RNA: GGGAGUUCUACAGUCCGACGAUCCUCUUUGAAGAAGAGUCCCCCAAAAAUAAUAAUAAGAAUUGGCUUAUGAAGCACGAACGGUAAAGAUCUGUUUGAAACUAAAGGACACAUUUAUGGAGGAACAAAGGCCGGGCAUGAAAACAACAGAGGAUUGAGCAUCA
B4: chr11:85023558:85023559:-_ENSMUSG00000018481_ENSMUST00000018625|mus_mus|FALSE|FALSE (ssRNA)
RNA: GGGAGUUCUACAGUCCGACGAUCGCCAUGUUUAGACAGCUUAUCCAUGUAUGUCUGAGCUAAUUUAAAUGUUUCUUCACCUAGAUGAUAUUUACAAUUUCCAUUUCGCACAUGAAGCAACCUCACACAACACUCCACUGCUCGCAACAGAGGAUUGAGCAUCA
B5: chr16:29654537:29654538:+_ENSMUSG00000038084_ENSMUST00000160597|mus_hu|FALSE|FALSE (ssRNA)
RNA: GGGAGUUCUACAGUCCGACGAUCCGUAAUGUGAAGGUUUUAAAAAAAUAAUACAAAGUUCAUUCACAGUGCACAAGUGAAAACAAGGUAAGUUUCAAAUAUCUCAACAACAUAUAGCCAUGAUCAUUCAAAAGGUAAGCAUAUCAACAGAGGAUUGAGCAUCA
B6: chr1:66480114:66480115:+_ENSMUSG00000015222_ENSMUST00000024639|mus_hu|mus_mus_mus_hu_True|48_108 (ssRNA)
RNA: GGGAGUUCUACAGUCCGACGAUCUGGCCUGUGACGGAUGUUCUUCAGAGAGCCACAUUUGGAUGUCACAUGGCUUAGGUCUAUUUUCUUAGUAACAAUUUGUACCUGCCCCCCUUUAGGCUGGUAUUUGAUGUUGUCUGUUGACAACAGAGGAUUGAGCAUCA
B7: chr16:56712917:56712918:-_ENSMUSG00000022757_ENSMUST00000065515|mus_mus|FALSE|FALSE (ssRNA)
RNA: GGGAGUUCUACAGUCCGACGAUCAUAAUCAGCUUCCCACUUAGGUCCAACUGUCCGUUCAUUGUGGAGUCCAGGAUGCUCUAUAUAUACAACUCUAGGGGAAAAAAACCCGCUUGCCGAGGCCGUCCACCUCAGCUGACCCGGCAACAGAGGAUUGAGCAUCA
B8: chr7:150721943:150721944:-_ENSMUSG00000059119_ENSMUST00000072727|mus_mus|FALSE|FALSE (ssRNA)
RNA: GGGAGUUCUACAGUCCGACGAUCCACCUGGAGCUGCUUCAGGGCAUUAAUUCUUCUUUUGACAGCUUUAGGUAAAGUUUCUAUGUAACUAGAAGGAGUGUGAGAGACGUUGUCAAGACGUUCCUGCAAAGCUGCCAGCACUUGCAACAGAGGAUUGAGCAUCA
B9: 87970487_87970607_7243_CDS_ENSG00000188994_ENST00000369577|human|control|control (ssRNA)
RNA: GGGAGUUCUACAGUCCGACGAUCGUGUUGUGAUGUAAAUGCCUUAGAUAAUUUAUGGCACUUAUAAUGUCUAAUUAUAUUGCUUUCACUUGUAACAACUGAAGUACAUCCCUUUAUCAUACAUGGAUACUGGGUUACAAAUCUCAACAGAGGAUUGAGCAUCA
B10: chr2:27535424:27535425:-_ENSG00000115204_ENST00000380044|hu_mus|motif|central (ssRNA)
RNA: GGGAGUUCUACAGUCCGACGAUCUUUGGCCCAAUUGUCCUGGGCUGACAUUCCAUUGAGUAUCCCGACCAGUGGGAGAAAGCAGCCGGGGAAACAUGGGGCAAAGCCCCCCUGAUCUAACAACAUCUUCUUCAGUGCAUGCACCAACAGAGGAUUGAGCAUCA
B11: chr17:65740002:65740003:+_ENSG00000130935_ENST00000581375|hu_hu|hu_hu_hu_mus_False|8_68 (ssRNA)
RNA: GGGAGUUCUACAGUCCGACGAUCAACAAAUCUUUCUUCCCUGGACGAACAGGAAGAUUCAUAUUAACUUUAUAAAAUAUCCAUCAAGUUAGGUGUGGUGGCCACACCUUUACUCCCAGCACUUUGGGAAUAUAAUCUCUGAGUCAACAGAGGAUUGAGCAUCA
B12: chr1:60041781:60041782:+_ENSMUSG00000041040_ENSMUST00000036540|mus_hu|mus_mus_mus_hu_False|18_18 (ssRNA)
RNA: GGGAGUUCUACAGUCCGACGAUCAAGUUUACAAUAGUAAAGUAAAUGCAGUAGUGGCAAAUUUUCUUUUAUUUUCCUUCACAAAAGAAAAUCUUUAUAACCCAGUCCUAGUCUUGGCAGAGAAAGCAGCUAUAAAUUCUGACUCAACAGAGGAUUGAGCAUCA
B13: chr21:34923711:34923712:+_ENSG00000159140_ENST00000381679|hu_hu|FALSE|FALSE (ssRNA)
RNA: GGGAGUUCUACAGUCCGACGAUCCAUCUGGGAGUCCAUGGUGUUGGACGCUAGCAUUUGGGAGUCCAUGGUGUUGGAUGCUAAUAUAUGGGUCUCCAUGGUGUUAGAAGCUAAUAUAUGGGAUUCUGGGGCCAUCAAGGGAUCCAACAGAGGAUUGAGCAUCA
B14: chr11:53094105:53094106:-_ENSMUSG00000020361_ENSMUST00000020630|mus_mus|FALSE|FALSE (ssRNA)
RNA: GGGAGUUCUACAGUCCGACGAUCCAAUUUCUUGAGUUUCUCACACUCUUGAGACAGUCGUAAUAAAGCACGAAUUUUAGAUUUUAUGUCUAGCUUGUAUUUCUUUCCAAAUUCUUCACAGAAGUGAUUUACCAACACCUCAUCCAACAGAGGAUUGAGCAUCA
B15: 69878041_69878161_674_3pUTR_ENSMUSG00000052981_ENSMUST00000065118|mouse|control|control (ssRNA)
RNA: GGGAGUUCUACAGUCCGACGAUCGGGGUGCUGCUGUUGCUGCUGCUGCUUGUGGCCGCUGCUCUUACCACCACCUUUGCCGCGCAGCGAUGCGCUCUGCUGGCCGCCGCCUCCGCCACGGUGGUUGUGGUGGUGCUUGGGGUCCAACAGAGGAUUGAGCAUCA
B16: chr1:154686295:154686296:-_ENSMUSG00000042772_ENSMUST00000043560|mus_hu|FALSE|FALSE (ssRNA)
RNA: GGGAGUUCUACAGUCCGACGAUCACAUUUCGUGCACACUCAGCGGGCUGGUGGAAUACUUACACCCUCUUGACAGCGAGAAACAGAAAAGAGGGCUGCCACCUGCAGGGGACUGUGUGGGCCAGUCCUGCAAACCCAACAUGCCAACAGAGGAUUGAGCAUCA
B17: chr16:18284709:18284710:-_ENSMUSG00000022718_ENSMUST00000009321|mus_hu|FALSE|FALSE (ssRNA)
RNA: GGGAGUUCUACAGUCCGACGAUCAACCACUGCCUCAAUUAUUGGAAAUCACAAUGCACUCAGCUUAAGUGACUGGCGACUAAGCGAGUCUGUCUUCAUGCCGGAGUGGCACCUUUCUUCUUCUACCUGAGGCGCCCGCGGGCUCAACAGAGGAUUGAGCAUCA
B18: chr8:117878989:117878990:-_ENSG00000164754_ENST00000297338|hu_hu|hu_hu_hu_mus_True|28_98 (ssRNA)
RNA: GGGAGUUCUACAGUCCGACGAUCCCAGAGGCCCUCGUUUACUGAGAACAAAAUGUGCGUAGAACAUUUUUCUUAUUUGCUAUGAAAUAAGAAGAAACCUGGAUCUCCCGCUGGGAGCGGGAGGGGUGGGUGGCCCGGGGAGGGCAACAGAGGAUUGAGCAUCA
B19: chr1:63355414:63355415:+_ENSMUSG00000027520_ENSMUST00000029025|mus_hu|FALSE|FALSE (ssRNA)
RNA: GGGAGUUCUACAGUCCGACGAUCUGUCACCCUCUUUCCAUGAAUUUUCUUUUUACUUUGACUUUCCAAAAGCUUAUUUCUAACUGAUUUUGGAGAGAUUUUGACAACAUCAUGAUUUAAAAAUGUUAGCUGGAAAUUUCUUUUCAACAGAGGAUUGAGCAUCA
B20: chr7:17002144:17002145:+_ENSMUSG00000059273_ENSMUST00000098789|mus_mus|FALSE|FALSE (ssRNA)
RNA: GGGAGUUCUACAGUCCGACGAUCUCUCUUGUCCUCCAGGGGGGUCCUGGACCUCCUCAGCCCCGUCGUCUUCCAGUUCACCUUCUUCCAACUCACCAUCUUCCCUUCCCCUCAGCAUGGCGCCCAAAAAAAGACAGAGCGAGACAACAGAGGAUUGAGCAUCA
B21: chr10:71978566:71978567:-_ENSG00000180817_ENST00000373232|hu_hu|FALSE|FALSE (ssRNA)
RNA: GGGAGUUCUACAGUCCGACGAUCUAAAGGGUCCUUUGUAGCAAUCUCCAUUUUUGCAUUAGACCAGCGUGGUACUUCAACUACCAUGUGAAACACAUCCUUAUCUGCAUAAAUUGGAAUAUCAUGAAAUGGAGAUAUAUAUUGCAACAGAGGAUUGAGCAUCA
B22: chr3:151883435:151883436:+_ENSMUSG00000028034_ENSMUST00000166984|mus_hu|FALSE|FALSE (ssRNA)
RNA: GGGAGUUCUACAGUCCGACGAUCCAUCUCUCCAUUUCUUCCUAUUACAAUGCCAACAGCAAAUCUUGGAAUGGGGACAUCUAUCCCUUCAUUUCCUCCUAUUCUUGACCCAUACUCAUUCCGAACUUCUCUGAAACCGCCUUGCAACAGAGGAUUGAGCAUCA

This is one part of the list.

The test has as its target T1, UNK ZnF1-3 (human, UniProt Q9C0B0 31-174).
T1 sequence: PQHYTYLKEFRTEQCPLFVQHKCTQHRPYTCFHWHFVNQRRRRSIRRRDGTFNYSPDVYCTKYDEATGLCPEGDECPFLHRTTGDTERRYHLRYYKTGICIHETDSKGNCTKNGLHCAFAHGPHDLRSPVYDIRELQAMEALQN
The test can be described thus: nsRBNS (natural sequence RNA bind-n-seq); RBNS binding buffer (assumed for nsRBNS): 25 mM Tris pH 7.5, 150 mM KCl, 3 mM MgCl2, 0.01% Triton X-100, 500 ug/ml BSA, 20 U/ml SUPERase-In, 4 C; UNK is unkempt and MSI1 is Musashi-1; names of the RNAs are library labels; protein concentration not given here; high values mean tight binding.
On to B1, for which the binding signal amounted to 1 enrichment R.
Molecule B2 returned a binding signal of 0.607 enrichment R.
The value for B3 was 2.4 enrichment R.
The value for B4 was 0.794 enrichment R; that for B5 was 1.21 enrichment R.
In turn, B6 came in with a binding signal of 0.384 enrichment R.
The value for B7 was 1.15 enrichment R; that for B8 was 0.94 enrichment R; that for B9 was 0.585 enrichment R.
The value for B10 was 0.784 enrichment R.
B11: the binding signal amounted to 0.874 enrichment R.
B12 came in with a binding signal of 0.931 enrichment R.
The value for B13 was 1.73 enrichment R.
B14 had a binding signal of 0.621 enrichment R.
The value for B15 was 0.477 enrichment R; that for B16 was 0.675 enrichment R.
The value for B17 was 0.958 enrichment R; that for B18 was 1.27 enrichment R; that for B19 was 0.746 enrichment R.
B20: the binding signal came out at 1.12 enrichment R.
B21 gave a binding signal of 0.536 enrichment R.
As to B22, the binding signal came out at 0.952 enrichment R.
